Test results: article PMC11074830
These are yes or no findings as the source states them, for the method shown. Binding seen in cells or lysates may run through a third protein. Some entries that bind do so weakly or less than the wild type. For some assays here: Sequences can lack the tags named with a protein.

By UniProt entry, the sequences of proteins in these tests, tags left out.
UniProt Q96GD4: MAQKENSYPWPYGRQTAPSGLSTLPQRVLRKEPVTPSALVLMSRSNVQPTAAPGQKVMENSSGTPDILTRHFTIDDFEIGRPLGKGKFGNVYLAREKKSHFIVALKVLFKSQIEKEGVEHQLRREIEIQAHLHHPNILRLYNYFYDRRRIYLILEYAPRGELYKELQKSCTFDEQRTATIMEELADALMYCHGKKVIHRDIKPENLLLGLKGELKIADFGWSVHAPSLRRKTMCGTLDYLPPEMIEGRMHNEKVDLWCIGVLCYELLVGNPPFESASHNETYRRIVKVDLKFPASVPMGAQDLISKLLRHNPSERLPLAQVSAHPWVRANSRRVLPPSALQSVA
UniProt P53350: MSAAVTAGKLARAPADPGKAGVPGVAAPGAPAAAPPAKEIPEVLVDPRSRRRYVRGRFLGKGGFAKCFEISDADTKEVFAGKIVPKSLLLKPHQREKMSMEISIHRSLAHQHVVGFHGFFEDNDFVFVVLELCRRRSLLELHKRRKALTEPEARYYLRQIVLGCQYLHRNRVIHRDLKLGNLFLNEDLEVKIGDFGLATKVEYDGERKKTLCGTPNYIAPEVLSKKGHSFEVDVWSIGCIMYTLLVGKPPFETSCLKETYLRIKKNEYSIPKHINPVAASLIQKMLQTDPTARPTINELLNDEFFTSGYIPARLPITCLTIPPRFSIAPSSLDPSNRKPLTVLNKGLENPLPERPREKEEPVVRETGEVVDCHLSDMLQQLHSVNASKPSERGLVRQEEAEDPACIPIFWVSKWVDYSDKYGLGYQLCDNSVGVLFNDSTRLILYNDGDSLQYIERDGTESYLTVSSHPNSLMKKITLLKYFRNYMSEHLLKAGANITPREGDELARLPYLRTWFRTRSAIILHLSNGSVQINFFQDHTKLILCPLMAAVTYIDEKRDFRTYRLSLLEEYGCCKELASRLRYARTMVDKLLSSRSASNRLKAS

T1: Elk-1 transcription factor (endogenous) (human (endogenous in SH-SY5Y and U87)) (UniProt P19419)
T1 sequence: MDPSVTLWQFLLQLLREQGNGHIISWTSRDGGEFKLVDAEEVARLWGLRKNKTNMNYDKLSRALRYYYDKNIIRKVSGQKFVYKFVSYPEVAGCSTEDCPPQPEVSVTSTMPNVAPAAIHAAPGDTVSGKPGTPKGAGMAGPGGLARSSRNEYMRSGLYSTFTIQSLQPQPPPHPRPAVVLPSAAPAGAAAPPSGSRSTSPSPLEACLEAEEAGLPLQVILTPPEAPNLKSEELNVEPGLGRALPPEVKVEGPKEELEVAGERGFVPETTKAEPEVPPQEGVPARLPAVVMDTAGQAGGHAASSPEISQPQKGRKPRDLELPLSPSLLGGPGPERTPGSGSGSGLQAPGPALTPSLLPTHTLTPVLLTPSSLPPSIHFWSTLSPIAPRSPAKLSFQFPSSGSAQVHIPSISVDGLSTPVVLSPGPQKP

T2: GST-Elk-1 (1-93) (UniProt P19419)
T2 sequence: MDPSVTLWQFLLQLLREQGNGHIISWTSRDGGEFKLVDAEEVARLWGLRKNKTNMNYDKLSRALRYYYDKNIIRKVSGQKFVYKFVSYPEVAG

T3: GST-Elk-1 (349-428) (UniProt P19419)
T3 sequence: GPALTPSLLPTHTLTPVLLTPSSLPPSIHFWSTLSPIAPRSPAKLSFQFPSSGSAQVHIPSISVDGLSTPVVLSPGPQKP

T4: GST-Elk-1 (1-205) (UniProt P19419)
T4 sequence: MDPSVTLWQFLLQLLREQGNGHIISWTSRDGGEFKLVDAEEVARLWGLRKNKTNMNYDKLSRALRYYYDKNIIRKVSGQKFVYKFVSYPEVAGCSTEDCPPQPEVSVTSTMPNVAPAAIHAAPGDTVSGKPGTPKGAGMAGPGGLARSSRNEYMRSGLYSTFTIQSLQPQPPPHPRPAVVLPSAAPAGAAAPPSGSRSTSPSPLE

B1: Aurora-A (endogenous) (enzyme, UniProt O14965 1-403)
chain: MDRSKENCISGPVKATAPVGGPKRVLVTQQFPCQNPLPVNSGQAQRVLCPSNSSQRIPLQAQKLVSSHKPVQNQKQKQLQATSVPHPVSRPLNNTQKSKQPLPSAPENNPEEELASKQKNEESKKRQWALEDFEIGRPLGKGKFGNVYLAREKQSKFILALKVLFKAQLEKAGVEHQLRREVEIQSHLRHPNILRLYGYFHDATRVYLILEYAPLGTVYRELQKLSKFDEQRTATYITELANALSYCHSKRVIHRDIKPENLLLGSAGELKIADFGWSVHAPSSRRTTLCGTLDYLPPEMIEGRMHDEKVDLWSLGVLCYEFLVGKPPFEANTYQETYKRISRVEFTFPDFVTEGARDLISRLLKHNPSQRPMLREVLEHPWITANSSKPSNCQNKESASKQS
B2: Serum response factor (endogenous) (protein, UniProt P11831 1-508)
chain: MLPTQAGAAAALGRGSALGGSLNRTPTGRPGGGGGTRGANGGRVPGNGAGLGPGRLEREAAAAAATTPAPTAGALYSGSEGDSESGEEEELGAERRGLKRSLSEMEIGMVVGGPEASAAATGGYGPVSGAVSGAKPGKKTRGRVKIKMEFIDNKLRRYTTFSKRKTGIMKKAYELSTLTGTQVLLLVASETGHVYTFATRKLQPMITSETGKALIQTCLNSPDSPPRSDPTTDQRMSATGFEETDLTYQVSESDSSGETKDTLKPAFTVTNLPGTTSTIQTAPSTSTTMQVSSGPSFPITNYLAPVSASVSPSAVSSANGTVLKSTGSGPVSSGGLMQLPTSFTLMPGGAVAQQVPVQAIQVHQAPQQASPSRDSSTDLTQTSSSGTVTLPATIMTSSVPTTVGGHMMYPSPHAVMYAPTSGLGDGSLTVLNAFSQAPSTMQVSHSQVQEPGGVPQVFLTASSGTVQIPVSAVQLHQMAVIGQQAGSSSNLTELQVVNLDTAHSTKSE

How the values were obtained:
[1] = molecular target: T1, Elk-1 transcription factor (endogenous) (human (endogenous in SH-SY5Y and U87)); assay: co-IP; U87 cells arrested with 100 ng/ml nocodazole for 16 hr, released, collected at 0, 30, 60 and 90 min; Elk-1 immunoprecipitated with anti-Elk-1 antibody; blots for Aurora-A, Aurora-B, Cdk1, Plk1
[2] = molecular target: T1, Elk-1 transcription factor (endogenous) (human (endogenous in SH-SY5Y and U87)); assay: co-IP; endogenous Elk-1 immunoprecipitated with anti-Elk-1 antibody and protein A agarose from SH-SY5Y lysate (RIPA buffer); blots for Aur-A, Aur-B, Cdk1, Plk1; IgG as IP control
GST-Elk-1 (1-93) = molecular target: T2, GST-Elk-1 (1-93); assay: pull-down; GST or GST-Elk-1 deletions semipurified on glutathione-sepharose beads, incubated with U87 glioblastoma cell lysates; Western blot for Aur-A, Aur-B, Cdk1, Plk1, ERK, SRF; only the target purified
GST-Elk-1 (349-428) = molecular target: T3, GST-Elk-1 (349-428); assay: as above
GST-Elk-1 (1-205) = molecular target: T4, GST-Elk-1 (1-205); assay: as above
[3] = molecular target: T1, Elk-1 transcription factor (endogenous) (human (endogenous in SH-SY5Y and U87)); assay: condition: only 60 or 90 min after release from nocodazole arrest; co-IP; as a2, samples at 60 and 90 min after release from nocodazole arrest (U87 cells)

Molecule	binding [1]	binding [2]	binding (GST-Elk-1 (1-93))	binding (GST-Elk-1 (349-428))	binding (GST-Elk-1 (1-205))	binding [3]
Aurora-B (endogenous) (from UniProt Q96GD4 1-344) (enzyme)	binds	binds	no binding	no binding	binds	–
Polo-like kinase-1 (endogenous) (from UniProt P53350 1-603) (enzyme)	binds	binds	no binding	no binding	binds	–
B1	binds	binds	no binding	no binding	binds	no binding
B2	–	–	–	–	binds	–
